The record followed here is paper PMC4336329 (PLoS ONE, 2015).

Hit rate of the full screen: of about 310,000 compounds, about 2,200 (0.71%) showed an effect of 50% or more. Effects have a minus sign here. Some of the results follow.

Sequence of human ether-à-go-go-related gene (hERG) potassium channel (Q12809 whole entry, looked up): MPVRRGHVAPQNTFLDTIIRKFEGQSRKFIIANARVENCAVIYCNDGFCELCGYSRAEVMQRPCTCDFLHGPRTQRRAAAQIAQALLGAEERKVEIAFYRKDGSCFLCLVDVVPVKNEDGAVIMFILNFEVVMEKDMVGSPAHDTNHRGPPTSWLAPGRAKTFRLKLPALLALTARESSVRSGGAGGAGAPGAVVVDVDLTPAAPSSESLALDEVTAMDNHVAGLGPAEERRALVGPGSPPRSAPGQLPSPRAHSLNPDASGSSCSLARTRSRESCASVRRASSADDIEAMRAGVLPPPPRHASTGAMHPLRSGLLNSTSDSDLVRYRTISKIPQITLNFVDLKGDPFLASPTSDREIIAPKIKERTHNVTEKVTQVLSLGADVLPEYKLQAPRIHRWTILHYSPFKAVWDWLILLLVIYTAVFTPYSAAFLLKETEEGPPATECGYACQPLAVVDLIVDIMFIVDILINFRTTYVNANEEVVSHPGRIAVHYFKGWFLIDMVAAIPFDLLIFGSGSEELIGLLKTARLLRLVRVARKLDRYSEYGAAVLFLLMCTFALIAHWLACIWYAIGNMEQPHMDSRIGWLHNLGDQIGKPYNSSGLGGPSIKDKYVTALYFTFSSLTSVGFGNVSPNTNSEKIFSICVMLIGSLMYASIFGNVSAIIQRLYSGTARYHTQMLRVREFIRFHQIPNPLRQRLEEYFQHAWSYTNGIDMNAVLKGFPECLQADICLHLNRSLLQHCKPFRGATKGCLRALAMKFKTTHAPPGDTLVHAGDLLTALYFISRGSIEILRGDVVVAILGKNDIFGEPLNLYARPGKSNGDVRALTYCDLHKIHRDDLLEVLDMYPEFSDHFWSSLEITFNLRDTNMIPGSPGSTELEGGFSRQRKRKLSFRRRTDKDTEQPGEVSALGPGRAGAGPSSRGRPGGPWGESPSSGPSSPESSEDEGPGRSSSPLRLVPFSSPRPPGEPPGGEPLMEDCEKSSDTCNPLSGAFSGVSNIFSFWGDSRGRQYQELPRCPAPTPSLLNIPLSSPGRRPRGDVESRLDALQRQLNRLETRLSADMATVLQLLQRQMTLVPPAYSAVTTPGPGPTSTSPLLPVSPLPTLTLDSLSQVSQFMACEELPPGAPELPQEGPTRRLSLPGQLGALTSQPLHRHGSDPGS

This assay concerns the target human ether-à-go-go-related gene (hERG) potassium channel (human, UniProt Q12809). Kind of assay: primary screen, population patch clamp on CHO cells stably expressing hERG.
Regarding `COc1ccc(-n2c(C)nnc2SCC(=O)N2CCOCC2)cc1`, the “hERG current change (%, negative = inhibition) at 1uM” value amounted to 14.6%.
`COc1ccccc1-c1c(C)nn2c(N)c(-c3ccc(Cl)cc3)cnc12`: the “hERG current change (%, negative = inhibition) at 1uM” value was 20.6%.
Turning to `Cc1ccc(Cl)cc1N1CCN(C(=O)c2ccc(CS(=O)Cc3ccc(Cl)cc3)o2)CC1` (stereo not shown), the “hERG current change (%, negative = inhibition) at 1uM” value is 15.3%.
The figure for `CSc1nnc(-c2cccn(Cc3cccc(Cl)c3)c2=O)o1` is 4.48%; for `O=C(NC1CCCCC1)N1CCCC(c2nc(-c3cccs3)no2)C1` (stereo not shown) it is 2.11%.
Then `COc1ccc(-n2cc(CN[C@H]3CCCCNC3=O)c(-c3cccc(F)c3)n2)cc1`, with -33%; and `Cc1ccc(NS(=O)(=O)c2c(C)[nH]c(C)c2C(=O)N2CCCCC2)c(Br)c1`, with 4.64%; and `COC(=O)C1=C(C)N(Cc2ccco2)C(=O)N[C@@H]1c1ccco1`, with 18.9%.
Consider `Cn1c(=O)n(CC(=O)O)c(=O)c2c1nc1n2CCCN1Cc1ccccc1`, for which the “hERG current change (%, negative = inhibition) at 1uM” value is recorded as 11.2%.
Consider `O=C(NCc1ccccc1)c1cc(S(=O)(=O)N2CCC3(CC2)OCCO3)ccc1F`, for which the “hERG current change (%, negative = inhibition) at 1uM” value stood at 8.59%.
Then `CC(=O)c1ccccc1NC(=O)CC1(CC(=O)O)CCCCC1`, with 11.1%; and `COCCNC(=O)C(OC(=O)c1cc2oc(C)cc2n1C)C(C)C` (stereo not shown), with 7.23%; and `CCOC(=O)c1ccc(-c2ccc(/C=N/NC(=O)Cc3nnc(N)s3)o2)cc1`, with 12.3%.
Then `CNCCCOc1ccc(Cl)cc1C(C)(C)C.O=C(O)C(=O)O`, with 9.81%; and `Cc1ccc(S(=O)(=O)NCCNC(=O)c2ccc(C)nc2)cc1`, with -27.8%; and `COc1ccc(/C=C(/NC(=O)/C=C/c2ccccc2)C(=O)NCCCCCC(=O)O)cc1`, with 8.36%.
In the case of `CCOc1ccc(OCCC(=O)OCC(=O)NC2CC2)cc1`, the “hERG current change (%, negative = inhibition) at 1uM” value was 6.6%.
As to `CNc1nc(N)c([N+](=O)[O-])c(NC2CCCCC2)n1`, the “hERG current change (%, negative = inhibition) at 1uM” value turned out to be 11.9%.
Then `CC(NC(=O)C(=O)N1CCOCC1)C(c1cccs1)N1CCN(c2ccccc2)CC1` (stereo not shown), with 7.19%.
The figure for `CC12CC3CC(C)(C1)CC(C(=O)N1CCCC1)(C3)C2` is 7.43%; for `Cc1ccc(Cn2ccc(=O)c(OCc3ccccc3)c2C)cc1` it is 8.25%.
In the case of `COc1ccccc1/C=N/NC(=O)CNC(=O)c1ccc(S(=O)(=O)N2CCCC2)cc1`, the “hERG current change (%, negative = inhibition) at 1uM” value came to 11.5%.
Then `CCOC(=O)c1cnn(-c2ccccc2)c1-c1ccncc1`, with 13%; and `CCc1ccc(C(=O)COC(=O)c2cccc(N3C(=O)c4c(C)nc5ccccc5c4C3=O)c2)cc1`, with -5%.
Then `CC(OC(=O)c1ccccc1Nc1ccc(SC(F)F)cc1)C(N)=O` (stereo not shown), with 0.263%; and `COc1ccc(CN(Cc2ccc(C(=O)O)cc2)C(=S)Nc2ccccc2C)cc1OC`, with 12.6%.
With `Cc1cc2ccccc2cc(C)c1=O`, the “hERG current change (%, negative = inhibition) at 1uM” value was determined as 11.4%.
The figure for `CC(C)OCCCN(C)C1CCN(S(=O)(=O)c2csc(C(N)=O)c2)CC1` is 19.3%.
As to `CC1=CS/C(=C(/C#N)C(=O)N2CCCCC2)N1c1ccccc1`, the “hERG current change (%, negative = inhibition) at 1uM” value came to 13.5%.
In the case of `Cc1cc(N2CCc3ccccc32)n2ncnc2n1`, the “hERG current change (%, negative = inhibition) at 1uM” value turned out to be 3.44%.
On to `CCC1=[N+](C)c2cccc3cccc(c23)N1C.[I-]`, for which the “hERG current change (%, negative = inhibition) at 1uM” value turned out to be 15.6%.
As for `CC1CCCCN1C(=O)CSc1nc(C2CC2)nc2c1cnn2-c1ccccc1` (stereo not shown), the “hERG current change (%, negative = inhibition) at 1uM” value was 18.7%.
For `Cc1cccc(C)c1NC(=S)NN(Cc1ccccc1)c1ccccc1`, the “hERG current change (%, negative = inhibition) at 1uM” value is 10.3%.
Regarding `CCCS(=O)(=O)Nc1c(C(=O)O)[nH]c2ccc(OC)cc12`, the “hERG current change (%, negative = inhibition) at 1uM” value was found to be 9.84%.
The figure for `CCOC(=O)c1c(/N=C/N(C)C)sc(C=O)c1-c1ccccc1` is 7.4%; for `O=C(Nc1ccc(Cl)cc1)C1CC2CCCC(C1)C2=O` (stereo not shown) it is -1.25%.
Turning to `Nc1c(C=C2C=CC(=O)C=C2)c(=O)nc2sc(CC(=O)N3CCCCC3)nn12`, the “hERG current change (%, negative = inhibition) at 1uM” value came to 21%.
Then `CCN1CCCC1CNc1ncnc2c1[nH]c1ccc(Cl)cc12` (stereo not shown), with -85.5%; and `CCOc1cc(OCC)cc(C(=O)O)c1`, with -3.36%; and `COc1ccc(/C=N/n2c(N)nc(-c3ccccc3)c2-c2ccccc2)cc1`, with 11.9%.
The figure for `CCCOc1ccc(C2C(C(=O)c3ccc(C)o3)=C(O)C(=O)N2CCCn2ccnc2)cc1` (stereo not shown) is 0.213%.
In the case of `CN(C)CCCN(C(=O)CCS(=O)(=O)c1ccccc1)c1nc2cc3c(cc2s1)OCO3.Cl`, the “hERG current change (%, negative = inhibition) at 1uM” value is given as -28.8%.
The figure for `O=S(=O)(c1cccc(F)c1)N1CCN(C(=S)NCC2CCCO2)CC1` (stereo not shown) is 10.9%; for `COc1cccc(NC(=O)CN(C)C(=O)Cn2cnc3ccccc3c2=O)c1` it is 6.94%.
Regarding `Cc1cc(Oc2ccc(C(C)(C)C)cc2)nc(N2CCOCC2)n1`, the “hERG current change (%, negative = inhibition) at 1uM” value amounted to 8.4%.
Then `CCn1c(SCC(=O)Nc2ccc(NC(=O)c3ccco3)c(OC)c2)nc2ccccc2c1=O`, with 5.55%; and `COC(=O)C(NNc1ccc(F)cc1)(NC(=O)c1ccccc1)C(F)(F)F` (stereo not shown), with 9.81%; and `O=C(CSc1nnnn1-c1ccccc1)c1ccc(O)cc1O`, with 10.1%.
The figure for `CCNC(=O)c1ccc2c(c1)C1C3CCC(C3)C1C(c1ccccc1)N2` (stereo not shown) is 12.6%.
As for `CCOc1ccc(S(=O)(=O)N2CCOCC2)cc1NC(=O)CSCc1c(C)noc1C`, the “hERG current change (%, negative = inhibition) at 1uM” value was determined as 2.49%.
With `O=C(c1ccccc1)c1ccc2nc(-c3ccc(NC(=O)c4ccccc4F)cc3)[nH]c2c1`, the “hERG current change (%, negative = inhibition) at 1uM” value came to 3.36%.
As for `COc1ccc(OC)c(-n2c(=S)[nH]c3cc(C(=O)NCCCN4CCCC4=O)ccc3c2=O)c1`, the “hERG current change (%, negative = inhibition) at 1uM” value is on record as 12.7%.
Then `CCC1=NN2C(=N)/C(=C/c3cc(C)n(-c4ccccc4)c3C)C(=O)N=C2S1`, with 13.3%; and `COc1ccc(C2COC(=O)C2=N)c(NC(=O)c2ccccc2)c1` (stereo not shown), with -0.0052%; and `O=C(O)c1ccccc1NS(=O)(=O)c1ccc2c3c(cccc13)C(=O)N2`, with 12.2%.
The figure for `Cc1cccc(C)c1OCC(=O)N/N=C/c1cccn1C` is -0.66%; for `COc1ccc(C(=O)OCCc2ccc(O)cc2)cc1` it is 8.12%; for `COc1cccc(CN(CC(=O)NCc2ccco2)C(=O)CNS(=O)(=O)c2ccccc2)c1` it is -3.3%.
The figure for `COc1ccc(NC(=O)c2cc(-c3cccs3)on2)c(OC)c1` is 15.4%; for `CC(C)(C)[C@@H]1C=C(C(N)=O)O[C@H](OCCCCO)C1` it is 8.39%.
For the compound `Cc1ccc(-c2nc3ncccc3o2)cc1NC(=S)NC(=O)c1ccco1`, the “hERG current change (%, negative = inhibition) at 1uM” value came to 9.78%.
Then `CCNc1nc2[nH]c(=O)c3c(c2s1)OC(N)=C(C#N)C3c1ccc(C)cc1` (stereo not shown), with 9.56%.
The figure for `CCc1ccc(N2CC(C(=O)Nc3ccc4c(c3)OCO4)CC2=O)cc1` (stereo not shown) is 20.1%.
Then `CCN1CCN(Cc2cc(OC)c3c(c2)OCO3)CC1`, with 10.4%; and `CC(C)(C)NC(=O)NC(=O)CN1CCCc2ccccc21`, with 17.6%; and `CC(C)(O)C#Cc1ccc(C(=O)NCc2ccccc2F)cc1`, with 4.67%.
With `Cn1cccc1C(=O)OCC(=O)Nc1ccc2c(c1)CCC2`, the “hERG current change (%, negative = inhibition) at 1uM” value is 9.67%.
The figure for `Cc1cccc(Nc2nc(-c3cccs3)cs2)n1` is 15.6%; for `COc1ccc(C2C3=C(CCCC3=O)Nc3nc(-c4cc(OC)c(OC)c(OC)c4)nn32)cc1OC` (stereo not shown) it is 1.65%; for `COc1ccc(S(=O)(=O)N2CCOCC2)cc1NC(=O)c1cccc2c(=O)c(C)c(-c3ccccc3)oc12` it is -6.09%.
On to `CCOC(=O)N1CCN(C(=O)CS(=O)(=O)c2cn(Cc3ccccc3Cl)c3ccccc23)CC1`, for which the “hERG current change (%, negative = inhibition) at 1uM” value came out at 5.52%.
As for `COc1ccc(-c2cn3cccc(C)c3n2)cc1F`, the “hERG current change (%, negative = inhibition) at 1uM” value is recorded as -24.9%.
The figure for `O=C(Nc1nnc(Cc2ccccc2)s1)C1CCN(C(=O)c2ccco2)CC1` is -7.73%; for `CCOc1ccc(C(c2c(O)nc(SC)[nH]c2=O)c2c(O)nc(SC)[nH]c2=O)cc1` it is 20.5%.
The figure for `Cc1ccc(C(c2sc3nc(C)nn3c2O)N2CCN(c3ccc(F)cc3)CC2)cc1` (stereo not shown) is -10.1%.
Then `CCCCN(C)C(=O)c1cc2c(s1)-c1ccccc1S(=O)(=O)C2`, with -6.69%.
In the case of `O=C(COc1cccc2ccccc12)NNC(=O)CSCCO`, the “hERG current change (%, negative = inhibition) at 1uM” value amounted to 3.84%.
The figure for `CCCCCCNc1c([N+](=O)[O-])cc(C)cc1[N+](=O)[O-]` is 1.7%; for `CC(=O)N1CCN(C(=O)CNc2cc(C(F)(F)F)ccc2OCC(F)(F)F)CC1` it is 6.04%.
As to `COc1ccc(S(=O)(=O)N2CCN(C(=O)c3cc(C)oc3C)CC2)cc1`, the “hERG current change (%, negative = inhibition) at 1uM” value came out at 11.1%.
Take `Cc1ccc(C2=NN(S(=O)(=O)c3ccccc3)C(c3ccco3)C2)cc1` (stereo not shown): the “hERG current change (%, negative = inhibition) at 1uM” value is 16%.
Then `CCn1ncc(/C=C/C(=O)NCc2cnn(C)c2C)c1C`, with 13.3%; and `CC(C)(C)c1ccc(C(=O)c2c[nH]c(C(=O)NCCCN3CCOCC3)c2)cc1`, with 12.1%; and `CC1CCC(C(=O)c2c(O)c3ccccc3oc2=O)CC1` (stereo not shown), with 14.6%.
For `O=C(Nc1ccc(NC(=O)c2cc3ccccc3o2)cc1)c1ccco1`, the “hERG current change (%, negative = inhibition) at 1uM” value is 25.1%.
Then `NC(=NCCc1ccccc1)NS(=O)(=O)c1ccc2ccccc2c1`, with 11.7%; and `Cc1ccc(C(CC(=O)c2ccco2)SCCO)cc1` (stereo not shown), with 11.5%.
Then `COC(=O)C1(Cc2cc(-c3cccnc3)no2)CCN(C(=O)OC(C)(C)C)CC1`, with 14.9%.
